Screen size: about 110,000 compounds; about 230 (0.21%) showed an effect of 50% or more. The list shows a part of the results.
biological target: DPAP1 (Plasmodium falciparum, UniProt Q8IIJ9); test: primary screen, percent inhibition; read by cleavage of a fluorogenic dipeptide substrate; higher = more effect of the substance; parameters: species or system P. falciparum D10 trophozoite lysates; single well
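Note: 30 min substrate incubation versus DMSO and 10 µM JCP410 controls.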

Sequence of DPAP1 (Q8IIJ9 whole entry, looked up): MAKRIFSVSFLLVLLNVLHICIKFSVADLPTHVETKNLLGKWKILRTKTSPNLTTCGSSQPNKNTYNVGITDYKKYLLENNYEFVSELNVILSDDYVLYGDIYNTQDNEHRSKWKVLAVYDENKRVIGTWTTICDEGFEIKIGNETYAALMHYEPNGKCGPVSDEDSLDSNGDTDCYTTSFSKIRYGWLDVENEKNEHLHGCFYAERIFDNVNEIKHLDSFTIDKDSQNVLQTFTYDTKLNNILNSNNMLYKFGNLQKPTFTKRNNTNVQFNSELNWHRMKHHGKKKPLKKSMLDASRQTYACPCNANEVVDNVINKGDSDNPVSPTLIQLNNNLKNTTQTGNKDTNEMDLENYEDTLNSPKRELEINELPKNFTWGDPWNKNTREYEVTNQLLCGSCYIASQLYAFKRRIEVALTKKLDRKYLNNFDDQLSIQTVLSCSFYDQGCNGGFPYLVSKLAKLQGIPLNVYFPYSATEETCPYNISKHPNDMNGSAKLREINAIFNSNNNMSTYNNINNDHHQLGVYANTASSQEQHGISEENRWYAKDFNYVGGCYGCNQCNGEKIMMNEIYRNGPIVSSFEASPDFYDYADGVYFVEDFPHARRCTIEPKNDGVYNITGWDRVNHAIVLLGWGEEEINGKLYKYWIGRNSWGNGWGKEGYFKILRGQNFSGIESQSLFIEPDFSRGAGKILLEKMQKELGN

Row | Structure (SMILES) | % Inhibition @ 10 uM
1 | O=C1C2C3C=CC(C3)C2C(=O)N1CNc1ccccc1 (centres unmarked) | -4.68%
2 | Cc1ccc(CCNC(=O)CN(C)S(=O)(=O)c2cccc3cccnc23)cc1 | -0.692%
3 | N#CCc1ccc(NC(=O)c2ccccc2Br)cc1 | -3.09%
4 | CCc1nn(CC(=O)NCc2cccc(OC)c2)c(=O)c2cc3sc(C)cc3n12 | 3.4%
5 | CCc1nc2ccc(C(=O)NCCc3ccco3)cc2nc1CC | 3.9%
6 | CCCC(=O)c1c(O)nc2cccc3c2c1-c1ccccc1C3=O | 3.05%
7 | CCOCCCNCc1c(C(=O)O)c(C)n(Cc2ccccc2F)c1C | -5.49%
8 | Cc1ccsc1CN1CCCC(O)C1 (centres unmarked) | -3.56%
9 | Clc1ccc(N2N=C(c3cccs3)CC2c2ccco2)cc1 (centres unmarked) | 2.22%
10 | Cc1ccccc1Cn1nc(C)c(NC(=O)c2cc(-c3ccco3)on2)c1C | -7.85%
11 | CC1CCN(S(=O)(=O)c2ccc(NC(=O)C(c3ccccc3)c3ccccc3)cc2)CC1 | 0.0974%
12 | Fc1ccc(CN2CCN(Cc3ccc4ccccc4c3)CC2)cc1 | 7.1%
13 | COc1cc(OC)cc(C(=O)Nc2sc3c(c2C(N)=O)CCCCCC3)c1 | 5.24%
14 | O=C(NCc1ccncc1)c1cccc(Cn2cc(Br)cn2)c1 | -1.33%
15 | Cc1ccc(S(=O)(=O)c2nc(S(C)(=O)=O)sc2NCC(C)C)cc1 | -2.25%
16 | Nc1c(-c2nc(-c3ccccc3F)no2)nnn1-c1ccccc1 | 5.47%
17 | COc1ccc2[nH]c(C)c(CCNCc3ccccc3F)c2c1 | -12.9%
18 | CCN(CC)CCCOc1ccc(F)cc1 | 2.26%
19 | CNC(=O)/C(=C/c1ccco1)NC(=O)c1ccc(Cl)cc1Cl | -1.44%
20 | CCOC(=O)c1c(S(=O)(=O)NCCN2CCCCCC2)c(C)n(C)c1C | 4.2%
21 | Cc1cc(N2C(=O)C3CCCN3C2c2ccccc2)no1 (centres unmarked) | 2.9%
22 | Cc1ccc(N(CC(=O)Nc2cccc3ccccc23)S(C)(=O)=O)c(C)c1 | 5.82%

Row | Structure (SMILES) | % Inhibition @ 10 uM
23 | O=C1CC(N2CCN(c3ccccn3)CC2)C(=O)N1c1ccc(Cl)cc1 (centres unmarked) | -6.62%
24 | CC1CCCCN1C(=O)c1ccc([N+](=O)[O-])o1 (centres unmarked) | 4.22%
25 | CC1=C(C(=O)OCc2ccccc2)C(c2cccc(Cl)c2)C2=C(O)CCCC2=N1 (centres unmarked) | 2.22%
26 | CC1(C)Cc2ccccc2C(/C=C(\O)c2ccccc2)=N1 | -3.8%
27 | Cc1ccc(S(=O)(=O)N2CCN(C(=O)CSc3nc4cc(Cl)ccc4s3)C2)cc1 | 40.8%
28 | CCCOc1ccc(Cc2nnn(CC(=O)O)n2)cc1 | -2.15%
29 | Cc1cc(C)c2c(n1)sc1c(SCc3ccccc3)nc(C)nc12 | -1.47%
30 | CN(C)c1ncnc2c1cnn2-c1ccc(F)cc1 | -0.0781%
31 | O=C(NCc1ccc(F)cc1)c1ccc(CS(=O)(=O)Cc2ccc(Cl)cc2)o1 | -4.97%
32 | CCN1CCN(CCCNC(=O)c2cc3c(O)nc4ccc(C)cc4c3s2)CC1 | 4.41%
33 | CSc1nc(O)c2c(n1)-c1ccccc1CC21CCCC1 | -4.8%
34 | COc1ccc(CCNc2nc3c(-c4ccccc4)nnn3c3ccccc23)cc1OC | 0.44%
35 | CCOC(=O)C1=C(C)NC(=O)NC1c1ccc(-c2ccccc2)cc1 (centres unmarked) | -0.582%
36 | O=C1CC(c2ccccc2C(F)(F)F)C2=C(CC(c3ccc(F)cc3)CC2=O)N1 (centres unmarked) | 3.67%
37 | Cc1cc(NC(=O)CSc2nc3ccccc3c3nc(CCc4c(C)n[nH]c4C)nn23)[nH]n1 | 4.33%
38 | CCCCSCCCNC(=O)c1ccc(CNS(=O)(=O)c2ccc(F)cc2)cc1 | 6.95%
39 | C1CN(C2C3CC4CC(C3)CC2C4)CCO1 (centres unmarked) | -4.94%
40 | COc1cccc(C2C(C#N)=C(N)Oc3[nH]c(-c4ccccc4)nc32)c1 (centres unmarked) | -1.44%
41 | CN(C)CC(=O)Nc1cc(N(C)C)nc2ccccc12 | 2.6%
42 | CCCCN(C)CCNC(=O)c1cnn2c(O)c(Cc3ccccc3F)c(C)nc12 | -5.52%
43 | Cc1ccc(-c2nc(NCCCN(C)C)c3ccccc3n2)cc1 | -1.33%
44 | O=C(NCc1ccc2c(c1)OCO2)c1ccc(C(=O)NCc2ccc3c(c2)OCO3)cc1 | -10.1%

Row | Structure (SMILES) | % Inhibition @ 10 uM
45 | COc1ccc(C(=O)Nc2ccc(Br)cc2C)c(OC)c1 | -6.44%
46 | COc1ccc(-c2noc(CNC(=O)C34CC5CC(CC(C5)C3)C4)n2)cc1 | -1.22%
47 | O=C(CCC1CCCC1)Nc1ccc(C(=O)O)cc1 | 1.19%
48 | Cc1ccc2c(c1)cc1c(=O)n(CC(=O)NCCCN3CCCC3=O)nc(C)n12 | 1.68%
49 | Cc1ccc(NC(=O)c2cc3nc(C(F)F)cc(C(F)F)n3n2)cc1 | 2.4%
50 | COc1cccc(NC(=O)C2C3C=CC(O3)C2C(=O)O)c1 (centres unmarked) | 3.69%
51 | CN1CCN(S(=O)(=O)c2ccc(Sc3nc4ccccc4[nH]3)c3nsnc23)CC1 | -6.04%
52 | COc1cc(OC)cc(C(=O)Nc2c(Cl)cccc2Cl)c1 | 1.64%
53 | Oc1c(Br)cc(/C=N/n2c(S)nnc2-c2ccccc2)c(O)c1Br | -2.65%
54 | O=C(NCCc1ccccc1)c1ccccc1NC(=O)C1CC=CCC1C(=O)O (centres unmarked) | -2.76%
55 | COc1ccccc1NC(=O)c1c(N)sc2c1CCC(C)C2 (centres unmarked) | -4.89%
56 | COc1cc(C2NC(=O)NC(C)=C2C(=O)OCC2CCCCC2)ccc1O (centres unmarked) | 4.35%
57 | CCN1CCN(C2CCC(C)CC2)CC1 (centres unmarked) | 0.162%
58 | O=C(c1cc2c(s1)-c1ccc(Cl)cc1S(=O)(=O)C2)N1CCCCC1c1cccnc1 (centres unmarked) | -2.45%
59 | O=C(/C=C/c1ccco1)c1ccc2c(c1)OCCO2 | 0.131%
60 | CCOc1ccccc1NC1=C(Cl)C(=O)N(c2cccc(C)c2)C1=O | 9.33%
61 | Cc1ccc(C)c(CN2CCCCC2CO)c1 (centres unmarked) | 3.47%
62 | O=C(NCC1CCCO1)c1ccc(COc2ccccc2Br)cc1 (centres unmarked) | 1.7%
63 | CCc1ccc(C2C(C#N)=C(N)Oc3[nH]nc(-c4cccs4)c32)cc1 (centres unmarked) | -0.968%
64 | CCOC(=O)N1CCN(C(=O)c2ccc(CS(=O)(=O)c3ccc(OC)cc3)o2)CC1 | 1.93%
65 | CC(C)Cc1ccc(C(C)C(=O)Nc2ncccn2)cc1 (centres unmarked) | -1.5%

Source: article PMC6919601, “Identification of Plasmodium dipeptidyl aminopeptidase allosteric inhibitors by high throughput screening” (PLoS ONE, 2019)
